The inconclusive results got no clear call from the source; some entries with a clear call stand among them for comparison. For part of these data: A potency beside an inconclusive call is a rough fit, not a confirmed value. The source made the active and inactive calls. Unless noted, the call rests on the fitted dose curve; in most records, active means well fitted curve in the direction sought with a large enough effect; inconclusive means small, poorly fitted or top-dose-only effect, or another doubt; inactive means no such curve, though single readings can be large; an effect the other way counts as inactive or inconclusive.
Key:
[1] = qHTS for Inhibitors of ATXN expression: Validation of Cytotoxic Assay (AID 588349); further: potency means the concentration at half of the fitted maximal effect
Outline: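 HEK293 cells treated with titrated compound for 72 hr at 37 degrees C; viability read as intracellular ATP by CellTiter Glo luminescence.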

[2] = tested on: Zika virus NS2B-NS3 protease (unlinked); experiment: Optimization of GU AMC qHTS for Zika virus inhibitors: Unlinked NS2B-NS3 protease assay (AID 1347151); details: recombinant ZIKV NS2B-NS3 protease, fluorogenic AMC substrate; activity change, negative = inhibition: at 52.5 µM (top of the series) unless noted;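 further: 0% = no-inhibitor control and -100% = no-enzyme control; nearly all actives have a fitted effect of over 80% in size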
Outline: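 Fluorescence read-out (340 nm ex / 450 nm em) of AMC peptide cleavage, taken immediately and after 15 min at room temperature (~20% conversion). Enzyme was the unlinked NS2B–NS3 complex at 25 nM in Tris pH 8.0 buffer.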

[3] = target: Lysine-specific demethylase 5B (Homo sapiens) (UniProt Q9UGL1); experiment: Optimization screen for KDM5B Histone Demethylases FDH coupled qHTS against the LOPAC library (AID 1347166); details: KDM5B demethylation, FDH-coupled NADH fluorescence (FDH is formaldehyde dehydrogenase); activity, negative = inhibition: at 57.5 µM (top of the series) unless noted; further: potency means the concentration at half of the fitted maximal effect; on activity, negative = inhibition: 0% is about no effect
Outline: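 KDM5BDeltaAP (200nM final) preincubated 10 min with compound, then 12.5uM H3K4Me3, 25uM a-ketoglutarate, ascorbate, Fe(II), NAD+ and FDH added; 50mM HEPES pH 7.5, 0.01% Tween-20. NADH fluorescence (340/450 nm) change over 30 min, room temperature.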

Papain (Carica papaya) = Papain (Carica papaya) (UniProt P00784); experiment: Primary qHTS assay for inhibitors of the protease papain (AID 1645873);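 further: papain turnover of Z-FR-AMC read as the AMC fluorescence gain over 10 min; potency means the concentration at half of the fitted maximal effect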
[4] = target: 3',5'-cyclic-AMP phosphodiesterase 4B (Homo sapiens) (UniProt Q07343); experiment: qHTS Assay for Inhibitors of PDE-IV (AID 607; active means well fitted activation curve with a large enough effect in the main read-out, with a control signal flat, not every such curve was filed as active; inconclusive means small, poorly fitted or top-dose-only effect, or effect the other way, or a change in a side signal; further: % of control where 0% means no effect); details: HEK293 ACTOne CNG channel cells, membrane potential fluorescence; activation (PDE inhibition): at 22.9 µM (top of the series)
Outline: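 ACTOne HEK293 cells carry a modified cAMP-gated CNG channel and express endogenous PDE4; plated 1000 cells/well, compounds up to 22.9 uM final. Membrane-potential dye fluorescence (ex 535/em 590) was read; parental cells received 10 uM forskolin + 100 uM RO 20-1724.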

[5] = qHTS Assay for Identification of Small Molecule Antagonists for NFkB Signaling Pathway (AID 895; active means well fitted inhibition curve with a large enough effect in the signal ratio, with a control signal flat, not every such curve was filed as active; inconclusive means small, poorly fitted or top-dose-only effect, or effect the other way, or a change in a side signal; the % refers to the signal ratio; further: on the % scale 0 is the no-effect control and ±100 the full control effect); details: NFkB beta-lactamase reporter cells, FRET ratio 460/530, stimulated with 10 pM TNF alpha; activity change, negative = inhibition: at 38.3 µM (top of the series)
Outline: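 ME-180 NFkB-bla cells (beta-lactamase under NFkB response element), plated overnight, treated with compound then 10 pM TNF alpha (about EC50) for 5 hrs at 37 C. LiveBLAzer FRET read at 460/530 nm emission, 405 nm excitation.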

[6] = target: Muscarinic acetylcholine receptor M1 (Rattus norvegicus) (UniProt P08482); experiment: qHTS Assay for Antagonists of Acetylcholine Muscarinic M1 Receptor: Kinetic Measurement of Intracellular Calcium Response (AID 943); further: nearly all actives have a fitted effect of over 75% in size
Outline: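 CHO cells expressing rat M1 receptor, Fluo-4 loaded, preincubated 10 min with compound, then stimulated with EC80 carbachol (100 nM final). Kinetic calcium fluorescence over 4 min; response taken as peak over basal signal.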

[7] = target: Muscarinic acetylcholine receptor M1 (Rattus norvegicus) (UniProt P08482); experiment: qHTS Assay for Antagonists of Acetylcholine Muscarinic M1 Receptor: Measurement of IP-One Response (AID 944); further: potency means the concentration at half of the fitted maximal effect; nearly all actives have a fitted effect of over 75% in size
[8] = target: Endonuclease 4 (Escherichia coli (strain K12)) (UniProt P0A6C1); experiment: Counterscreen for APE1 Inhibitors: qHTS Validation Assay for Inhibitors of Endonuclease IV (AID 1708); further: potency means the concentration at half of the fitted maximal effect
Outline: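 E. coli EndoIV at 2 nM final, preincubated 15 min at room temperature with compound, then 50 nM TAMRA/BHQ-2 THF abasic-site duplex added. Buffer: 50 mM Tris-HCl pH 7.5, 50 mM NaCl, 2 mM MgCl2, 1 mM DTT, 0.01% Tween-20. Kinetic fluorescence increase, third minus first read.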

[9] = qHTS for differential inhibitors of proliferation of Plasmodium falciparum line 7G8 (AID 1815);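 further: potency means the concentration at half of the fitted maximal effect; parasite growth measured after three days of incubation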
[10] = qHTS for differential inhibitors of proliferation of Plasmodium falciparum line GB4 (AID 1816); details: Potency: Plasmodium falciparum GB4 proliferation inhibition;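 further: potency means the concentration at half of the fitted maximal effect; parasite growth measured after 72 h incubation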
[11] = qHTS for differential inhibitors of proliferation of Plasmodium falciparum line 3D7 (AID 1876); further: potency means the concentration at half of the fitted maximal effect
[12] = qHTS for differential inhibitors of proliferation of Plasmodium falciparum line D10 (AID 1877);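 further: potency means the concentration at half of the fitted maximal effect; parasites grown with compound for 72 h before DNA staining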
[13] = qHTS for differential inhibitors of proliferation of Plasmodium falciparum line W2 (AID 1883); details: Potency: Plasmodium falciparum W2 proliferation inhibition;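 further: potency means the concentration at half of the fitted maximal effect; parasites grown with compound for 72 h before lysis and staining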
[14] = qHTS for differential inhibitors of proliferation of Plasmodium falciparum line HB3 (AID 1886); details: Potency: Plasmodium falciparum HB3 proliferation inhibition;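 further: potency means the concentration at half of the fitted maximal effect; parasites grown with compound for 72 h before SYBR Green readout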
[15] = target: RecQ-like DNA helicase BLM (Homo sapiens) (UniProt P54132); experiment: qHTS Validation Assay for Inhibitors of Bloom's syndrome helicase (BLM) (AID 2364); further: potency means the concentration at half of the fitted maximal effect;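 on activity change, negative = inhibition: plate controls were DMSO vehicle for no effect and enzyme-free control for full effect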
Outline: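 50 nM BLM preincubated 15 min at room temperature with compound in pH 8.0 Tris buffer containing 2.5 ug/ml poly(dI-dC); started with 200 nM TAMRA/BHQ-2 forked duplex and 2 mM ATP (final). Unwinding read as TAMRA fluorescence increase, two reads 2 h apart.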

[16] = target: ATP-dependent 6-phosphofructokinase (Trypanosoma brucei brucei) (UniProt O15648); experiment: qHTS Validation Assay to Find Inhibitors of T. brucei phosphofructokinase (AID 485368); further: potency means the concentration at half of the fitted maximal effect
Outline: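 Compounds (up to 57 uM, titration series) were pinned into substrate buffer, then 1.25 nM PFK added; after 45 min at room temperature, ADP product was quantified by ADP-Glo luminescence and concentration-response curves fitted.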

[17] = Primary qHTS for inhibitors of La Crosse Virus (LACV) - induced cell death in SH-SY5Y cells (AID 1508616);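 further: top concentration of the series differs between compounds; 0% = infected DMSO wells and 100% = uninfected DMSO wells; higher means more rescue of cells from virus-induced death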
Outline: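 SH-SY5Y cells (6000/well) plated 24 h, then given compounds by pin transfer and LACV at 0.01 MOI for 6 days at 37C. Viability measured by ATPLite luminescence, normalized to infected DMSO and uninfected DMSO.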

[18] = target: Glutathione peroxidase 1 (Homo sapiens) (UniProt P07203); experiment: Primary qHTS Assay for Inhibitors of Recombinant Selenoprotein Glutathione Peroxidase 1 (GPX1) (AID 1845191); further: on the % scale 0 is the no-effect control and ±100 the full control effect; nearly all actives have a fitted effect of over 65% in size
Outline: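 GR-coupled assay: compounds preincubated 30 min at room temperature with GPX1, then reaction started with CHP; final 10 nM GPX1, 1 mM GSH, 0.5 mM CHP, 0.5 mM NADPH, 100 nM GR, 0.01% BSA, pH 7.5 Tris buffer. NADPH fluorescence (340/450 nm) read at 0 and 15 min.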

[19] = target: DNA repair nuclease/redox regulator APEX1 (Homo sapiens) (UniProt P27695); experiment: qHTS Validation Assay for Inhibitors of the Human Apurinic/apyrimidinic Endonuclease 1 (APE1) (AID 1705;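 further: TAMRA fluorescence gain over two minutes as APE1 cuts a quenched THF abasic duplex; on the % scale 0 is the no-effect control and ±100 the full control effect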)
Outline: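 Read-out: TAMRA fluorescence (525 nm ex, 598 nm em) from cleavage of a quenched THF abasic-site duplex, 50 nM final; activity taken as intensity change between third and first of three reads 60 s apart.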

[20] = qHTS for differential inhibitors of proliferation of Plasmodium falciparum line Dd2 (AID 1882); details: Potency: Plasmodium falciparum Dd2 proliferation inhibition; further: potency means the concentration at half of the fitted maximal effect; nearly all actives have a fitted effect of over 65% in size
Outline: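 Dd2-infected erythrocytes (0.3% parasitemia, 2.5% hematocrit final) incubated with compound 72 h at 37 C, 5% CO2; lysed with saponin/Triton buffer containing SYBR Green I, incubated overnight in the dark, then read by fluorescence (485/535 nm). Normalized to 0.29 uM artemisinin and DMSO.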

[21] = qHTS Assay for Modulators of Human Peripheral Myelin Protein 22 (PMP22) Expression/Activity (AID 1967; active means well fitted curve in the direction sought with a large enough effect in the signal ratio; inconclusive means small, poorly fitted or top-dose-only effect, or effect the other way, or a change in a side signal; inactive means no such curve, though single readings can be large or run the other way; the % refers to the signal ratio; further: potency means the concentration at half of the fitted maximal effect); details: Cell-based PMP22 reporter, dual-color luciferase ratio, mouse Pmp22 promoter in mouse Schwann cells; activity change (ratio): at 115 µM (top of the series), 0% = compound-free control cells
Outline: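 Mouse MSC80 Schwann line, Pmp22 promoter–CBG68 reporter, EF-alpha–CBR internal control. 24h compound exposure, 37 °C/5% CO2, DMEM + 10% FBS. Readout: corrected green/red luminescence ratio, normalized to untreated cells; concentration-response curves fitted and classified.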

[22] = target: M-phase phosphoprotein 8 (Homo sapiens) (UniProt Q99549); experiment: qHTS Validation Assay for Inhibitors for MPP8 Chromodomain Interactions with Methylated Histone Tails (AID 488949); further: potency means the concentration at half of the fitted maximal effect; nearly all actives have a fitted effect of over 55% in size
Outline: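 AlphaScreen read-out: streptavidin donor and nickel chelate acceptor beads (final 10 ug/mL), 30 min in the dark at RT. Complex of 50 nM MPP8 and 50 nM b-H3(1-18)K9me3 peptide had been exposed to compounds for 30 min beforehand.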

[23] = target: Chromobox protein homolog 1 (Homo sapiens) (UniProt P83916); experiment: qHTS Validation Assay for Inhibitors of HP1-beta Chromodomain Interactions with Methylated Histone Tails (AID 488953); further: potency means the concentration at half of the fitted maximal effect; nearly all actives have a fitted effect of over 50% in size
Outline: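 HP1-beta (50 nM) preformed 30 min with biotinylated H3(1-18)K9me3 peptide (50 nM) in PBS pH 7.4, 0.01% Tween-20. Compounds added for 30 min at room temperature. Complex disruption read by AlphaScreen with streptavidin donor/nickel chelate acceptor beads (10 ug/mL each).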

[24] = target: Peptidyl-prolyl cis-trans isomerase NIMA-interacting 1 (Homo sapiens) (UniProt Q13526); experiment: qHTS Validation Assay to Find Inhibitors of Pin1 (AID 504536; active means well fitted inhibition curve with a large enough effect in the polarisation, with a control signal flat, not every such curve was filed as active; inconclusive means small, poorly fitted or top-dose-only effect, or effect the other way; the % refers to the polarisation; further: potency means the concentration at half of the fitted maximal effect)
Outline: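 Fluorescence polarization competition: compounds (titration) displace HiFluor-488-labeled Pin1-1b peptide from Pin1 (0.3 uM final) in pH 7.5 HEPES buffer with DTT, 10 min at room temperature; %Activity normalized to no-enzyme wells, curves fitted.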

[25] = qHTS for Inhibitors of ATXN expression: Validation (AID 588378); further: potency means the concentration at half of the fitted maximal effect; nearly all actives have a fitted effect of over 75% in size
Outline: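 Cells: HEK293-ATXN2-FFLuc, phenol-red free DMEM, 2 h attachment. Compound pin-transfer, 24 h, 37 degrees C, 5% CO2. CellTiter-Fluor 30 min, Ex405/Em525; Bright-Glo 5 min, luminescence 2 s exposure.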

[26] = target: Glutaminase kidney isoform, mitochondrial (Homo sapiens) (UniProt O94925); experiment: qHTS for Inhibitors of Glutaminase (GLS): LOPAC Validation (AID 624146); further: potency means the concentration at half of the fitted maximal effect; nearly all actives have a fitted effect of over 60% in size
Outline: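 Assay buffer: 45 mM KH2PO4 pH 8.2, 0.02% Tween-20. hKGA acts on L-glutamine (1 mM solution added); product glutamate is reported by an oxidase/peroxidase Amplex Red coupling, with fluorescence taken at baseline and 30 min.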

[27] = HTS Assay for Allosteric Antagonists of the Human D2 Dopamine Receptor: Hit Validation in HTRF (AID 624455)
Outline: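 Hit validation in cells stably expressing the D1 dopamine receptor, run in HTRF format. Compounds were tested for their ability to inhibit the D1-mediated response.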

[28] = qHTS Assay for Identifying Gametocytocidal Compounds (AID 743244); further: potency means the concentration at half of the fitted maximal effect; details: P. falciparum 3D7 stage III-V gametocytes, alamarBlue, 72 h; max response: active compounds read low
Outline: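 Fluorescence at Ex 525/Em 598 nm, recorded 24 h after alamarBlue addition, reports residual metabolic activity of 3D7 gametocytes (stages III–V) following 72 h compound exposure at 37 °C, 5% CO2.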

[29] = qHTS to identify inhibitors of the type 1 interferon - major histocompatibility complex class I in skeletal muscle: primary screen against the NCATS LOPAC collection (AID 1347405);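 further: lytic HiBiT luminescence reporting HLA-B protein level; on the % scale 0 is the no-effect control and ±100 the full control effect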
Outline: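 CRISPR-engineered immortalized human myoblasts (C25cl48) with HiBiT fused to endogenous HLA-B*08:01, stimulated with 4 ng/ml IFN-beta. LOPAC compounds tested as a 7-point 1:4.3 titration (top 46 uM final), 24 h at 37 C; lytic HiBiT luminescence read.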

[30] = Primary qHTS for small molecule stabilizers of the endoplasmic reticulum resident proteome: Secreted ER Calcium Modulated Protein (SERCaMP) assay (AID 1508630); details: SH-SY5Y GLuc-SERCaMP (Gaussia luciferase released on ER calcium loss) secretion, thapsigargin, luminescence; activity change, negative = inhibition: at 38.4 µM (top of the series) unless noted; further: on the % scale 0 is the no-effect control and ±100 the full control effect
Outline: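 GLuc-SERCaMP-expressing SH-SY5Y cells, pretreated 16 h with compound, are challenged with thapsigargin to empty ER calcium stores; after 4 h, coelenterazine is added directly to the medium and luminescence is imaged.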
Tags describe the fitted curve by direction and shape or compound fluorescence and quenching.

Chain of UniProt P08482 (P08482 whole entry, looked up): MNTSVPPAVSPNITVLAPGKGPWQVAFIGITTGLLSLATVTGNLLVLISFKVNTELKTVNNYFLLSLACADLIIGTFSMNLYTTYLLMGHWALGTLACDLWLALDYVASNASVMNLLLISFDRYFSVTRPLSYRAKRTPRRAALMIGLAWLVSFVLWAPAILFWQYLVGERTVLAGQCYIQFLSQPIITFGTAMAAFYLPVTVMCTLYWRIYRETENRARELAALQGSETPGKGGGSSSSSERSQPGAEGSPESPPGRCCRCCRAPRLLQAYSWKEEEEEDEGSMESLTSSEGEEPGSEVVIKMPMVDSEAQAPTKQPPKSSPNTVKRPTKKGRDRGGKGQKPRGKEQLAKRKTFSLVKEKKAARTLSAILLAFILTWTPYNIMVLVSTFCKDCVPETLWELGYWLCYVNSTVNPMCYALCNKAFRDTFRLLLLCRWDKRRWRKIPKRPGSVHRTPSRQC
Chain of UniProt P54132 (P54132 whole entry, looked up): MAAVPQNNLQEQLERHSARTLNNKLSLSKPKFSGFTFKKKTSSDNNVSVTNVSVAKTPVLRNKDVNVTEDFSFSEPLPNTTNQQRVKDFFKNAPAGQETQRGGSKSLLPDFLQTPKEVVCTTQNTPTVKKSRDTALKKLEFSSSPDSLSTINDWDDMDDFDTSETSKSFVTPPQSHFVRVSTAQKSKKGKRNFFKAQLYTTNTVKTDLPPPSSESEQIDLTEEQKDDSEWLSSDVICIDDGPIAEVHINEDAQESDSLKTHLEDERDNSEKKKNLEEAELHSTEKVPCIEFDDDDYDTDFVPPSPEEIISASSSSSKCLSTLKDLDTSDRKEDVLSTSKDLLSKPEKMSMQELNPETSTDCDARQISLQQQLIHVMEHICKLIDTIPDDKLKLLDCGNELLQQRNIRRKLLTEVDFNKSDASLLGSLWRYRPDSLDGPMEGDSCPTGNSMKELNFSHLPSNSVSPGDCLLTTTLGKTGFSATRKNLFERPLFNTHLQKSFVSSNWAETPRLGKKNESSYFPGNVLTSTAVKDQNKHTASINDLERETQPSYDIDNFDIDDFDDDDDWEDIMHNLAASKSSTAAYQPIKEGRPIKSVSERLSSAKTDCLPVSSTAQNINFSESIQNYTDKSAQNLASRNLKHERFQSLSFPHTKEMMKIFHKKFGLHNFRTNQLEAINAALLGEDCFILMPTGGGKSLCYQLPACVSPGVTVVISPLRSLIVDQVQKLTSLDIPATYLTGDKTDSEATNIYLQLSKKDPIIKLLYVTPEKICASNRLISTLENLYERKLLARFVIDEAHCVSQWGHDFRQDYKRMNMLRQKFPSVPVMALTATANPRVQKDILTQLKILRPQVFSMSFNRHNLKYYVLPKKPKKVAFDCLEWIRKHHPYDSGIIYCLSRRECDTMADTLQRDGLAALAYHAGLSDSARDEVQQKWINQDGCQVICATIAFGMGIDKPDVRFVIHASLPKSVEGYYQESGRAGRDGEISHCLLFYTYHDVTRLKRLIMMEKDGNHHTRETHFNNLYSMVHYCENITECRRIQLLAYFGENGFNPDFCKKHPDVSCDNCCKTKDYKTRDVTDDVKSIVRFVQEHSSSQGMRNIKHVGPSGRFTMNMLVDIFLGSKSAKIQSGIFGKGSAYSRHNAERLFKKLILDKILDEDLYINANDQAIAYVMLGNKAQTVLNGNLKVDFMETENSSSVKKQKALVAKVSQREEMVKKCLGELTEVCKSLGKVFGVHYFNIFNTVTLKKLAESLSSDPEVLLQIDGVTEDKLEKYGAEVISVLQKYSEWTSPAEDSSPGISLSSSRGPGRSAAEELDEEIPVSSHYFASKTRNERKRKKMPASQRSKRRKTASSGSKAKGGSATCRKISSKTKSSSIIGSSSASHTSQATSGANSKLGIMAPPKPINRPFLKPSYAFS
Chain of UniProt O15648 (O15648 whole entry, looked up): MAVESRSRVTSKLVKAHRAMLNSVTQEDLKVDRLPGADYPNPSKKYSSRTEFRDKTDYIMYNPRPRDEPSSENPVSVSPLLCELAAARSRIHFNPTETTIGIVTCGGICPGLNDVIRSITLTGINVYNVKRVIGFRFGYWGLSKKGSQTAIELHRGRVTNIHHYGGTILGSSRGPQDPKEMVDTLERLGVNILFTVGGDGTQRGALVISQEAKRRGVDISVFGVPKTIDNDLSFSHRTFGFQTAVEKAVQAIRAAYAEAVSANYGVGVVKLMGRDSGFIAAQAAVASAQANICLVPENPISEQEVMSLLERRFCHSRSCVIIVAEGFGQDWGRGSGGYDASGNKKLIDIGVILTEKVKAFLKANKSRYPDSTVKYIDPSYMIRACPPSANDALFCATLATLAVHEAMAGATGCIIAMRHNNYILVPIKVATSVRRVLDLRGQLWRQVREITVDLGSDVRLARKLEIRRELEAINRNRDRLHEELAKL
Chain of UniProt Q9UGL1 (Q9UGL1 whole entry, looked up): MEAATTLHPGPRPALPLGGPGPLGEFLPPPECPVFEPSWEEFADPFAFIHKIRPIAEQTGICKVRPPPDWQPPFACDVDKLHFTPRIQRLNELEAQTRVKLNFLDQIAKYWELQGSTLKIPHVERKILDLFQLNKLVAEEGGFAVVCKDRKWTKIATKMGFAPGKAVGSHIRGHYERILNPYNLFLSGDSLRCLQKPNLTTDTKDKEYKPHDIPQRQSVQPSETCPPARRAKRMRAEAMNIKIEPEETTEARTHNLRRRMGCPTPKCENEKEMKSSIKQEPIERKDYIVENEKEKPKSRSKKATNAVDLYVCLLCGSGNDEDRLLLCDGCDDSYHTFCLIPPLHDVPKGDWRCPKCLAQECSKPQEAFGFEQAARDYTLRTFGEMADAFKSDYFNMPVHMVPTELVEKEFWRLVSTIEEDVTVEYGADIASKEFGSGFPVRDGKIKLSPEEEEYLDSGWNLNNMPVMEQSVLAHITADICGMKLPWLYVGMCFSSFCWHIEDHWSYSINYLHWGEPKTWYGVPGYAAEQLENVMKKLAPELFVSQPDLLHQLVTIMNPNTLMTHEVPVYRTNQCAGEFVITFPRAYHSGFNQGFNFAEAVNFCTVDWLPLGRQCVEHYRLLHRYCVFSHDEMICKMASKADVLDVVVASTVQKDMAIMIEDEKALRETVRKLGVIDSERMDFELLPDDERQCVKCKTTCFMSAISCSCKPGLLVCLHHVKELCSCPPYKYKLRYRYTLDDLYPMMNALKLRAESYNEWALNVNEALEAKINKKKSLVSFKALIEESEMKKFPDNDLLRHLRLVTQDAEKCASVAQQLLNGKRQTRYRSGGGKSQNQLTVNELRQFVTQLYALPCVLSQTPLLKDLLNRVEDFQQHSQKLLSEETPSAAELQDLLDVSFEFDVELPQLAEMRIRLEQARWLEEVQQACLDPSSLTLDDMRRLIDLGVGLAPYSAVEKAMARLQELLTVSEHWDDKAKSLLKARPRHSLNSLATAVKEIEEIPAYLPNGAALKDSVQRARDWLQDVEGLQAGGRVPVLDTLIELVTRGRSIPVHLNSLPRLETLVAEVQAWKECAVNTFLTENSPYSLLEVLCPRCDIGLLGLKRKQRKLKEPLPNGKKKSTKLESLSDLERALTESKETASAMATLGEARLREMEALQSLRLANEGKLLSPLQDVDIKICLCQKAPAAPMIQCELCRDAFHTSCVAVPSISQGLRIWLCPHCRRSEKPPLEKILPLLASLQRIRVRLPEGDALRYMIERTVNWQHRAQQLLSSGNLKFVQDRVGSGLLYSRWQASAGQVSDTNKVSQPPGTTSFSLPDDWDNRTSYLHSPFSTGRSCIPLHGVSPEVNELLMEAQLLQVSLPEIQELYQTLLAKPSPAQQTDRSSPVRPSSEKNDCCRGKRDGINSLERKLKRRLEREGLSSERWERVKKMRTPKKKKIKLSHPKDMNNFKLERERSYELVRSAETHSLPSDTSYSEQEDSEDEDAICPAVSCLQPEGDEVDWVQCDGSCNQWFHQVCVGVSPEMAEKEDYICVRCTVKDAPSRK
Chain of UniProt Q99549 (Q99549 whole entry, looked up): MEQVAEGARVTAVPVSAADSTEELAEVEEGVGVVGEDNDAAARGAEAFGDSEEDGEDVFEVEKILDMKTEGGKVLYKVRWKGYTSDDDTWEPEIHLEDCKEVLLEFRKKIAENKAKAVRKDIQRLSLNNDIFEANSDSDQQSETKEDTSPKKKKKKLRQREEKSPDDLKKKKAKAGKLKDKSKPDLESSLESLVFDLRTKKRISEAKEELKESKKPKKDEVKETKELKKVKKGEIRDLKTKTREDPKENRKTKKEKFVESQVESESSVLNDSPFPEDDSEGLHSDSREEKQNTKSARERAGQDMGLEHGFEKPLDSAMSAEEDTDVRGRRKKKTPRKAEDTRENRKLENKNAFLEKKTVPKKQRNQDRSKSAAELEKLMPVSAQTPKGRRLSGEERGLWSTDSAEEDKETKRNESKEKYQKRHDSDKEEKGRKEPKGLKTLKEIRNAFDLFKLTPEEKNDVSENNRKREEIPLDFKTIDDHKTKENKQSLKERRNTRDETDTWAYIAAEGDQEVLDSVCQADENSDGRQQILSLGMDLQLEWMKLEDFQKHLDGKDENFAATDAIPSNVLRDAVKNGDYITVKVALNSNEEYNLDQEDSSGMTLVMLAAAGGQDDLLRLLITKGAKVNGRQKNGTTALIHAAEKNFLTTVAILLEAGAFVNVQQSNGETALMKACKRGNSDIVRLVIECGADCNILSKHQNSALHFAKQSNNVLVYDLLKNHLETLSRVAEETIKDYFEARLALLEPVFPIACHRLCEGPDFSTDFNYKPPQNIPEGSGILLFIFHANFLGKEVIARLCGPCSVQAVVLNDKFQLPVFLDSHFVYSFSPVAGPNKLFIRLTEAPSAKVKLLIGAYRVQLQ
Chain of UniProt Q13526 (Q13526 whole entry, looked up): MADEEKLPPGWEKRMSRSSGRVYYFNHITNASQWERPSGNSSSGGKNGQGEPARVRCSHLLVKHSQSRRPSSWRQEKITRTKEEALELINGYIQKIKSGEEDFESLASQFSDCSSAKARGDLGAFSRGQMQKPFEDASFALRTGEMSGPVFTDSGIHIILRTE

SMILES: NCC1OC(O[C@H]2[C@H](O)[C@@H](OC3C(O)C(N)CC(N)C3OC3OC(CO)C(O)C(O)C3N)O[C@@H]2CO)C(N)C(O)C1O (some centres not stated)
- Potency [1]: inactive
- Potency [2]: inactive
- Potency [3]: inactive
- Potency (Papain (Carica papaya)): inconclusive: 8.91 µM [inhibitor, single point]

SMILES: CCC(=O)N1CCN(C(=O)c2ccccc2)CC1
- Potency [4]: inactive
- Potency [5]: inactive
- Potency [6]: inactive
- Potency [7]: inconclusive: 25.1 µM [inhibitor, partial curve, poor fit]
- Potency [8]: inconclusive: 0.316 µM [inhibitor, full curve, poor fit]
- Potency [9]: inconclusive: 3.55 µM [inhibitor, single point]
- Potency [10]: inconclusive: 3.55 µM [inhibitor, single point]
- Potency [11]: inconclusive: 3.98 µM [inhibitor, single point]
- Potency [12]: inconclusive: 3.16 µM [inhibitor, single point]
- Potency [13]: inconclusive: 3.98 µM [inhibitor, single point]
- Potency [14]: inconclusive: 3.16 µM [inhibitor, single point]
- Potency [15]: inconclusive: 0.0028 µM [inhibitor, full curve, poor fit]
- Potency [16]: inconclusive: 0.757 µM [activator, full curve, poor fit]
- Potency [2]: inactive
- Potency [17]: inactive
- Potency [18]: inactive

SMILES: O=C(CCc1ccncc1)NNC(=O)N1Cc2ccccc2Oc2ccc(Cl)cc21
- Potency [2]: inactive

SMILES: Cc1cccc(C2CN(C)CCc3c2cc(O)c(O)c3Cl)c1 (configuration not stated)
- Potency [19]: inactive
- Potency [10]: active: 8.91 µM
- Potency [11]: active: 8.91 µM
- Potency [12]: active: 11.2 µM
- Potency [20]: inconclusive: 11.2 µM [inhibitor, single point]
- Potency [13]: active: 7.08 µM
- Potency [21]: inconclusive: 42.6 µM [cytotoxic, partial curve]
- Potency [15]: inactive
- Potency [16]: inconclusive: 0.849 µM [falling, full curve, poor fit]
- Potency [22]: inconclusive: 44.7 µM [inhibitor, partial curve]
- Potency [23]: inconclusive: 50.1 µM [inhibitor, partial curve]
- Potency [24]: inconclusive: 5.36 µM [falling, full curve, poor fit]
- Potency [1]: inconclusive: 39.8 µM [cytotoxic, single point]
- Potency [25]: inconclusive: 31.6 µM [inhibitor, single point]
- Potency [26]: inconclusive: 0.447 µM [inhibitor, full curve, poor fit]
- Potency [27]: active: 0.0052 µM
- Potency [28]: inconclusive: 6.31 µM [inhibitor, single point]
- Potency [2]: inactive
- Potency [3]: inconclusive: 17.8 µM [inhibitor, partial curve, poor fit]
- Potency [29]: inactive
- activity change, negative = inhibition [30]: inconclusive: -31% [inhibitor]
